Data on 85 compounds can be found in PubChem BioAssay (NCI).

“And” between values parts separate entries of the source, which are not always exact repeats. Equal entries are not always repeated.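 How tested: cells in 96-well plates exposed to compound for 48 hours at five concentrations. At the GI50, growth is halved. The concentration for full growth arrest is given as TGI.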

For the experiment, the system named is NCI-H322M lung. Nature of the experiment: growth of human tumour cells (NCI), 48 h.
With `CCOC(=O)c1cc2c3c(cc(OC)c2[nH]1)N(C(=O)OCC)CC3`, the TGI was greater than 100 µM.
Same read-out and setting: then `CCOC(=O)c1c(-c2ccccc2)c(C)cn1C`, with greater than 10 µM.
Same read-out and setting: with `Cc1cc2c(cc1Cl)Sc1n[nH]c(=O)n1S2(=O)=O` the figure was greater than 100 µM; with `CC(C)=CCCC1(C)C2COC(=O)C21` (stereo not given), greater than 100 µM.
Turning to `NC(N)=N/N=C/c1c(-c2ccc(Cl)c([N+](=O)[O-])c2)nc2sc3ccccc3n12`, the GI50 was 0.762 µM and the TGI came out at 1.81 µM.
On to `COc1cc2c(cc1OCCCOc1ccc(-c3cc4ccccc4c4ccccc34)cc1)N=C[C@@H]1CCCN1C2=O`, for which the GI50 is 1.42 µM and the TGI came to 2.95 µM.
Regarding `CN(/N=C\c1ccc2ccccc2c1)C1=NCCCN1`, the TGI amounted to 51 µM.
For `CC1=C(CNO)C2=C(C)C3(CC3)[C@@](C)(O)C(=O)C2=C1`, the GI50 was 1.32 µM and the TGI amounted to 5.46 µM.
For `COc1cc(/C=C2\C(=O)N(C)c3ccccc32)cc(OC)c1OC`, in that order: 23.4 µM and 75.9 µM.
With `O=C(O)CCC1NC(/C(=C/c2ccccc2O)NC(=O)c2ccccc2)OC1=O` (stereo not given), the TGI is greater than 100 µM.
On the same count and under the same terms, with `O=C(Oc1ccc2c(c1)CN(Cc1ccccc1)CO2)c1ccccc1` the figure was 32.9 µM.
On the same count and under the same terms, then `O=C1C=C/C(=C/[C@H]2SSC=C[C@]23C=CC(=O)C3)C1`, with greater than 85.1 µM; and `C[n+]1c(-c2ccc(/C=N/NC(=O)C(=O)N/N=C/c3ccc(-c4cn5ccccc5[n+]4C)cc3)cc2)cn2ccccc21`, with greater than 100 µM; and `COC(=O)c1ccccc1C1CN=NC12Cc1c(C)ccc(C)c1C2=O` (stereo not given), with greater than 100 µM.
As for `COc1ccc(/C=C/C(C)=N/OCC(=O)Nc2ccc(Cl)cc2)cc1`, the GI50 was 3.67 µM and the TGI was greater than 88.1 µM.
For `Fc1ccc(-c2nn3c(COc4ccc(Cl)cc4)nnc3s2)cc1Oc1ccccc1`, in that order: 36.9 µM and greater than 72.2 µM.
Regarding `CC1=CCN(c2ccccn2)OC1c1ccccc1` (stereo not given), the TGI is greater than 100 µM.
`COc1cc(OC)cc(-c2ccc(-c3ccc(C(=N)N)cn3)s2)c1`: the GI50 is 1.74 µM and the TGI was 3.22 µM.
Turning to `CN(C)c1ccc(C2CC(C)(O)Oc3cc4c(cc32)OCO4)cc1` (stereo not given), the TGI is greater than 100 µM.
On the same count and under the same terms, then `OCC(O)C(O)C(O)C(O)c1nn[nH]n1` (stereo not given), with greater than 100 µM.
On the same count and under the same terms, with `O=C1C2CC[C@@H]3C(=O)C(Cl)(Cl)[C@@H]3CCC2C1(Cl)Cl` (stereo not given in full) the figure was 85.7 µM; with `CC(NNC(=O)c1ccncc1)c1ccc(Cl)cc1Cl` (stereo not given), greater than 100 µM; with `CC1CC(C)C(C(O)CC2CC(=O)N(c3ccccc3)C(=O)C2)C(O)C1` (stereo not given), greater than 100 µM.
On to `COc1ccc(C(=O)O/N=C2/CCCCC2CN(C)C)cc1` (stereo not given), for which the TGI was greater than 100 µM.
Regarding `O=NN(CCCl)C(=O)NC1CCCCC1`, the GI50 was 179 µM; the TGI is 168 µM and 257 µM.
`COc1cc(N(CCC#N)CCC#N)ccc1/C(N=Nc1ccc(C(=O)O)cc1)=N/NC(=O)c1cc(Br)ccc1O`: the GI50 is 132 µg/mL and the TGI is greater than 150 µg/mL.
In the case of `CSc1nc(C)c2c(n1)N(c1ccc(Cl)cc1)CC2`, the TGI is greater than 100 µM.
On the same count and under the same terms, then `CCCCCCCCCCCCCCCC(=O)OCC1OC(n2cc(F)c(=O)[nH]c2=O)C(NC(=O)N(CCCl)N=O)C(O)C1O` (stereo not given), with 15.8 µM; and `c1ccc2c3c([nH]c2c1)C1C2CCCCN2C(c2ccncc2)N1CC3` (stereo not given), with greater than 100 µM.
In the case of `NC(N)=N/N=C/c1c(-c2ccncc2)nc2sc(Cl)cn12`, the GI50 was 2.32 µM and the TGI was 7.16 µM.
Compound `CC(C)(CN1CCCCC1)C(=O)CC(SCCS(=O)(=O)O)c1ccc(Cl)cc1` (stereo not given) came in with a TGI of 21.1 µM.
The same measure, in the same setting: then `CC(=O)OCC1OC(n2c(=S)n(-c3ccccc3)c(=O)c3cc(Br)cc(Br)c32)C(OC(C)=O)C(OC(C)=O)C1OC(C)=O` (stereo not given), with greater than 100 µM; and `CCOC(=O)c1cn(CC)c2ccc3c(c2c1=O)S(=O)(=O)C=C3`, with greater than 100 µM.
Regarding `Oc1ccccc1C=Nc1nc(OCc2ccccc2)nc2[nH]ncc12`, the GI50 is 18.1 µM and the TGI is 50.4 µM.
The corresponding values for `OCCCCC#Cc1ccccc1C#Cc1ccc(C(F)(F)F)cc1` are 13.1 µM and 26.2 µM.
With `Cc1ccc(NCCN(C)C)c2c(=O)c3cc(O)ccc3sc12`, the TGI worked out at 18.3 µM.
Turning to `O=C(c1ccccc1)C(Br)C(Br)c1ccccc1` (stereo not given), the GI50 is 16.1 µM and the TGI amounted to 30.4 µM.
Compound `C=CCOC(=O)N1c2ccc(O)cc2[C@@]23O[C@@]24[C@@H]1C#C/C=C\C#C[C@]3(O)C(=O)C[C@@H]4C` registered a TGI greater than 100 µM.
On the same count and under the same terms, then `Nc1nc(=S)c2[nH]cnc2[nH]1`, with > 100 µM and 229 µM and > 250 µM.
`COC(=O)[C@H](Cc1cn(C)cn1)NC(=O)[C@@H](NC(=O)Nc1cc(C(F)(F)F)cc(C(F)(F)F)c1)C(C)C`: the GI50 is greater than 10 µM and the TGI is greater than 10 µM.
With `CC(=O)N1c2cc(N=NN(C)C)ccc2NC(=O)CC1C` (stereo not given), the TGI is greater than 100 µM.
In the case of `COc1c(O)c2c3c(c1OC)-c1ccccc1CC3N(S(=O)(=O)c1ccc(C)cc1)CC2` (stereo not given), the GI50 is 2.73 µM and the TGI was greater than 50 µM.
For the compound `COc1cccc(C2C(C#N)=C(N)Oc3cc4c(cc32)OCO4)c1` (stereo not given), the GI50 is 5.05 µM and the TGI was greater than 100 µM.
`O=c1[nH]c2ccc([N+](=O)[O-])cc2nc1/C(=N/Nc1ccccc1)C(O)c1ccco1` (stereo not given) came in with a TGI greater than 100 µM.
The same measure, in the same setting: with `COC(=O)CC1CC2(C(=O)OC)c3[nH]c4ccccc4c3CCN2C1=O` (stereo not given) the figure was greater than 100 µM; with `CCOC(=O)c1csc(NC(=O)C(C)N2CCOCC2)n1` (stereo not given), greater than 100 µM.
In the case of `CCN1CCN(c2nc(NNC(=O)c3ccccc3)nc(N3CCN(C(c4ccccc4)c4ccccc4)CC3)n2)CC1`, the GI50 is 4.48 µM and the TGI is 30.1 µM.
Turning to `C=C(Cl)[C@@](Cl)(CBr)CC[C@@H](Br)C(C)(C)Cl`, the TGI is 2.9 µM and 1.42 µM.
Still for that read-out and setting: then `O=c1c2cc(I)ccc2nc(-c2cccs2)n1O`, with 80.6 µM.
For the compound `Cc1cc(Nc2ccc(Cl)cc2)nc(NCCCNc2ccnc3cc(Cl)ccc23)n1`, the GI50 was 1.57 µM and the TGI was 3.02 µM.
For `CCOc1ccc(Nc2nc(-c3c(C)nc4ncccn34)cs2)cc1`, in that order: 0.0584 µM and 26.9 µM.
The corresponding values for `O=C(C(=O)c1cc(Br)ccc1O)c1cc(Br)ccc1O` are 2.46 µM and 6.74 µM.
Compound `c1cc2c(cc1[C@@H]1OC[C@@H]3[C@H]1CO[C@H]3c1ccc3c(c1)OCO3)OCO2` showed a TGI greater than 100 µM.
As to `COc1ccc(CC[N+]2(C)COc3cc4oc(=O)cc(C)c4cc3C2)cc1OC` (stereo not given), the TGI was greater than 100 µM.
Consider `C#CCOC(=O)C(=[N+]=[N-])C(=O)CC(C)C`, for which the TGI was greater than 10 µM.
Still for that read-out and setting: then `Cc1ccc(NC(=O)C(=O)Cc2cccc[n+]2[O-])cc1C`, with greater than 100 µM.
Same read-out and setting: then `Nc1nc(=S)[nH]c(C(=O)Nc2nccs2)c1-c1ccccc1`, with greater than 100 µM.
Take `Cn1ccnc1C(=O)/C=C/c1ccc(C(=O)Nc2c(F)c(F)c(F)c(F)c2F)cc1`: the GI50 was 1.52 µM and the TGI turned out to be 3.03 µM.
`O=S(=O)(O)c1cc(O)c(N=Nc2ccc3ccccc3c2O)c2ccccc12`: the TGI was greater than 100 µM.
On the same count and under the same terms, then `c1ccc(Nc2nnc(CCCCCCCCc3nnc(Nc4ccccc4)o3)o2)cc1`, with greater than 100 µM.
For `CC1=C2[C@@H](CC1)[C@]1(C)O[C@@](C3CC3)(C[C@H]1OC(=O)CO)[C@H]2OC(=O)/C=C/c1ccccc1`, the GI50 is 16.7 µM and the TGI is 33.4 µM.
`COC(=O)C(NC(=O)c1ccccc1)C(c1c(O)cc(O)cc1O)P(=O)(OC)OC` (stereo not given) registered a TGI greater than 100 µM.
For the compound `O=C(N/N=C/c1ccc(F)cc1)c1ccc(C(F)(F)F)nc1Nc1cccc(C(F)(F)F)c1`, the GI50 is 0.633 µM and the TGI came to 3.79 µM.
Consider `O=CC1=CCC2c3[nH]c4ccccc4c3CCN2C1` (stereo not given), for which the TGI came out at 391 µM.
As to `CCN(CC)CCNc1ccc([N+](=O)[O-])c2sc3cc(Cl)ccc3c(=O)c12`, the GI50 is 5.64 µM and the TGI was found to be 35.5 µM.
Consider `Clc1ccc2c(NCCCN3CCN(c4nc(N5CCOCC5)nc5ccccc45)CC3)ccnc2c1`, for which the GI50 is 2.22 µM and the TGI turned out to be 4.92 µM.
As to `O=C(O)/C=C/c1ccncc1`, the TGI was greater than 100 µM.
Still for that read-out and setting: then `Cc1cc(C)n2c(nc3ccccc32)c1C#N`, with greater than 100 µM; and `CC(C)[C@@H]1NC(=O)[C@@H]2N=C(O[C@H]2C)[C@H](C(C)C)NC(=O)C2N=C1O[C@H]2C`, with greater than 100 µM; and `CC[C@]1(Cc2ccc(OC)c(OC)c2)C=[N+]([O-])O[C@H](OC2CCCC2(c2ccccc2)c2ccccc2)[C@@H]1OC(=O)C(C)(C)C` (stereo not given in full), with 17 µM.
For `N#CC(NC(=O)CCl)=C(Cl)Cl`, the GI50 was 1.68 µM and the TGI is 3.15 µM.
The corresponding values for `N/C(=N\C(N)=N\c1nc2ccccc2s1)c1cnccn1` are 3.01 µM and greater than 100 µM.
In turn, `COc1cc2c(cc1OC)C(=O)N(c1ccc(OCCN3CCCC3)cc1)C2=O` showed a TGI greater than 100 µM.
For the compound `CCSc1ncc(Br)c(Sc2nc(N)nc3nc[nH]c23)n1`, the GI50 is 5.99 µM and the TGI is greater than 100 µM.
`C/C(Nc1ccc(Cl)cc1)=C1/CCOC1=O` had a TGI greater than 100 µM.
`CN(C)c1ccc(N=C2C=CC(=C(C#N)C#N)c3ccccc32)cc1` came in with a TGI of 8.45 µM.
Same read-out and setting: with `CC(C)=CCc1c2c(c(O)c3c(=O)c4c(oc13)-c1ccc(O)cc1OC4C=C(C)C)C=CC(C)(C)O2` (stereo not given) the figure was 29.1 µM; with `Clc1ccc(C2=NCON=C2c2ccc(Cl)cc2)cc1`, 44.8 µM; with `O=C(O)Cn1ccc(=O)c2cc([N+](=O)[O-])ccc21`, greater than 100 µM.
For `COC(=O)c1ccc2[nH]c(O)c(C(=Nc3ccc(N(C)C(=O)CN4CCN(C)CC4)cc3)c3ccccc3)c2c1`, the GI50 was 1.17 µM and the TGI was found to be 4.7 µM.
Compound `CC1(Cl)CC(C)(/C=C/Cl)C(Cl)CC1Cl` (stereo not given) yielded a TGI of 36.8 µM.
`C=C1CC/C=C(\C)CC[C@H](C(=C)C)[C@@H](O)/C=C(/CO)CCC1O` (stereo not given in full): the GI50 is 48.5 µM and the TGI is greater than 100 µM.
On to `CC(C)=CCC/C(C)=C/C=C/C(C)=C/C1C[C@@]2(C(O)O1)[C@H](CCCO)/C(=C(/C)C=O)CC[C@]2(C)O` (stereo not given in full), for which the TGI was 25.4 µM.
The same measure, in the same setting: with `O=C(O)C1(C(O)c2ccccc2)SCCCS1` (stereo not given) the figure was greater than 10 µM; with `COC1OC(C(=O)O)C2OC(C)(C)OC12` (stereo not given), greater than 100 µM.
